This is one part of the list. Sequences were assembled here from the parent chain. Inactive controls read about 0.05.
B1: TEV protease; numbered along this chain (parent)
chain: MGESLFKGPRDYNPISSSICHLTNESDGHTTSLYGIGFGPFIITNKHLFRRNNGTLVVQSLHGVFKVKDTTTLQQHLVDGRDMIIIRMPKDFPPFPQKLKFREPQREERICLVTTNFQTKSMSSMVSDTSCTFPSGDGIFWKHWIQTKDGQCGSPLVSTRDGFIVGIHSASNFTNTNNYFTSVPKNFMELLTNQEAQQWVSGWRLNADSVLWGGHKVFMVKPEEPFQPVKEATQL

Variants of: B1
Assay: raw area under fraction-flipped curve 0-4 h after induction (AUC4h, not background-subtracted), DNA-recorder readout of cleavage of the substrate (dimensionless); higher = more cleavage of the substrate by the protease variant
Details: temperature: 34 °C; time window: 0-4 h after rhamnose induction
Protocol: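 In vivo DNA recorder in E. coli TOP10(DE3) ΔrhaA at 34 °C. Each TEVp single-site mutant (parent TEVp 0) is paired with a single-site variant of the 7-mer TEVs (canonical ENLYFQ|S). The substrate sits between flexible linkers in a Bxb1-sfGFP-TEVs-SsrA fusion, so cleavage stabilises Bxb1 and speeds flipping of a recombination array, read by NGS. The value is the raw area under the fraction-flipped curve over 0-4 h after rhamnose induction (AUC4h), with ≥20 reads per time point. It is not background-subtracted; inactive controls average about 0.047.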
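Note: Bxb1 expression induced with 0.2% (w/v) L-rhamnose at OD600 near 0.5, cultures sampled hourly, flipped fraction per protease–substrate barcode pair counted by paired-end Illumina sequencing.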

| Variant | area with substrate ENLYFQA | area with substrate ENLYFQC | area with substrate ENLYFQD | area with substrate ENLYFQF | area with substrate ENLYFQG | area with substrate ENLYFQH | area with substrate ENLYFQI | area with substrate ENLYFQK | area with substrate ENLYFQL | area with substrate ENLYFQM | area with substrate ENLYFQN | area with substrate ENLYFQP | area with substrate ENLYFQQ | area with substrate ENLYFQR | area with substrate ENLYFQS | area with substrate ENLYFQT | area with substrate ENLYFQV | area with substrate ENLYFQW | area with substrate ENLYFQY | area with substrate ENLYFQE |
| --- | --- | --- | --- | --- | --- | --- | --- | --- | --- | --- | --- | --- | --- | --- | --- | --- | --- | --- | --- | --- |
| C111S | 0.126 | 0.117 | 0.0547 | 0.0631 | 0.102 | 0.0535 | 0.0633 | 0.0925 | 0.0611 | 0.0975 | 0.0771 | 0.0509 | 0.0654 | 0.0614 | 0.11 | 0.0532 | 0.0719 | 0.0458 | 0.0835 | – |
| C152P | 0.0625 | – | – | – | 0.0708 | – | 0.0551 | 0.0515 | 0.0637 | 0.0569 | 0.0862 | – | 0.06 | 0.0519 | 0.0601 | 0.0469 | 0.0608 | 0.0579 | 0.0592 | – |
| V165R | 0.0553 | 0.0524 | 0.0523 | 0.0449 | 0.0512 | 0.0288 | 0.069 | – | 0.0392 | 0.0548 | 0.0616 | – | – | 0.0565 | 0.0535 | 0.0508 | – | 0.0565 | 0.0587 | 0.053 |
| Q146M | 0.146 | 0.131 | – | – | 0.0988 | – | 0.0625 | 0.0537 | 0.063 | 0.0905 | 0.0791 | – | – | – | 0.135 | – | – | – | – | – |
| Q146K | 0.121 | 0.126 | 0.079 | 0.0813 | 0.106 | – | 0.0552 | 0.0649 | 0.0668 | 0.0923 | 0.0807 | 0.0547 | – | 0.0623 | 0.0985 | 0.0549 | 0.0646 | 0.0589 | 0.0708 | 0.0655 |
| Q146C | 0.0873 | – | 0.0972 | – | – | 0.0886 | 0.0676 | 0.0792 | 0.0613 | – | 0.073 | – | 0.108 | 0.0454 | 0.12 | 0.0963 | – | 0.0726 | – | – |
| I145K | 0.0646 | 0.0556 | – | – | 0.0545 | – | 0.0401 | 0.0368 | 0.0538 | – | 0.0578 | 0.0658 | 0.0595 | 0.0687 | 0.0598 | 0.0443 | 0.053 | – | 0.0555 | 0.059 |
| Q151E | 0.142 | 0.128 | 0.062 | 0.065 | 0.0839 | 0.0769 | 0.0627 | 0.0603 | 0.0579 | 0.075 | 0.0839 | 0.0566 | 0.0657 | 0.0611 | 0.102 | 0.0536 | – | 0.0667 | 0.0685 | – |
| Q151M | 0.116 | – | 0.0832 | – | 0.104 | 0.0762 | 0.069 | – | 0.0501 | – | 0.078 | 0.0772 | – | 0.0629 | 0.109 | – | 0.0636 | – | 0.094 | 0.0662 |
| V113G | 0.0855 | – | – | – | 0.0737 | – | – | 0.0548 | – | 0.0821 | – | – | – | 0.0501 | 0.0794 | 0.0772 | – | 0.055 | – | – |
| P155K | 0.0493 | 0.0587 | 0.0586 | – | 0.0513 | 0.0632 | 0.0496 | 0.0524 | 0.0578 | 0.0525 | 0.0568 | 0.0563 | 0.0497 | 0.0559 | 0.0536 | 0.0507 | 0.069 | – | 0.0277 | 0.0572 |
| W141I | 0.0653 | 0.0649 | – | – | 0.064 | – | 0.058 | 0.0523 | 0.0472 | – | 0.0427 | 0.0561 | 0.0655 | 0.0537 | 0.0643 | – | – | 0.033 | – | – |
| G150H | 0.0883 | 0.0654 | – | – | 0.0577 | 0.0584 | 0.059 | 0.0639 | 0.0672 | 0.073 | 0.0579 | 0.0622 | 0.0769 | 0.0662 | 0.0566 | 0.054 | 0.0603 | – | 0.0448 | – |
| G150V | 0.0528 | 0.0549 | 0.0544 | 0.0696 | 0.0516 | 0.0582 | 0.0575 | 0.058 | 0.058 | 0.0583 | 0.0572 | 0.0554 | 0.0502 | 0.0622 | 0.0608 | 0.0641 | 0.0528 | – | 0.0652 | – |
| D161W | 0.078 | 0.059 | 0.048 | 0.0444 | 0.0547 | – | 0.0477 | 0.0529 | 0.0485 | 0.0558 | 0.0436 | 0.0448 | – | 0.0415 | 0.0585 | 0.0475 | – | 0.0503 | 0.0738 | 0.0554 |
| D161A | 0.0556 | 0.0649 | 0.0749 | 0.064 | – | 0.0544 | 0.0581 | 0.0613 | 0.0491 | – | 0.0364 | 0.0454 | 0.0439 | 0.0542 | 0.064 | 0.0596 | 0.0575 | 0.0083 | 0.0674 | – |
| G162P | 0.055 | – | – | – | 0.0594 | 0.064 | – | 0.0459 | – | 0.0505 | 0.0539 | – | – | 0.0532 | 0.0656 | 0.0569 | – | 0.0496 | – | – |
| S135R | 0.0633 | 0.0723 | 0.0782 | – | – | – | – | 0.0566 | 0.0618 | 0.0608 | 0.0662 | 0.0546 | 0.0566 | 0.0551 | 0.0664 | 0.0521 | 0.0611 | 0.0633 | 0.0621 | 0.0627 |
| F140G | 0.0572 | 0.0551 | – | 0.0382 | 0.0637 | – | 0.0476 | 0.0596 | 0.0737 | 0.0712 | 0.0673 | 0.0578 | – | 0.0543 | 0.063 | 0.058 | 0.0577 | 0.0537 | 0.0601 | 0.0579 |
| S121M | 0.0646 | 0.123 | 0.0671 | – | 0.0873 | 0.0838 | 0.0639 | 0.0781 | 0.0632 | 0.0929 | 0.0652 | – | – | 0.0508 | 0.0996 | 0.0692 | 0.018 | 0.0673 | – | 0.0648 |
| L156E | 0.0546 | 0.057 | – | – | 0.0574 | 0.0568 | 0.0539 | 0.0513 | 0.0488 | 0.0553 | 0.0472 | 0.0549 | – | 0.0571 | 0.0532 | 0.0465 | 0.0495 | 0.053 | 0.0444 | – |
| S124R | 0.109 | 0.128 | 0.0686 | – | 0.0906 | 0.0772 | 0.0525 | – | 0.0582 | – | 0.0719 | 0.0604 | – | 0.0718 | 0.111 | 0.0643 | 0.0634 | 0.082 | 0.0757 | – |
| S124P | 0.101 | – | – | 0.08 | – | 0.0885 | – | 0.0658 | 0.0633 | 0.0962 | 0.074 | – | 0.0691 | 0.0592 | 0.102 | 0.0461 | 0.0684 | 0.064 | 0.0727 | – |
